Experimental data as given in PubChem BioAssay AID1671193 (National Center for Advancing Translational Sciences (NCATS), 2021).
Several values for one entry are separate records, joined by “and”; a condition that tells them apart may be missing. Identical values can stand only once. Among all 150,000 compounds or so, about 180 (0.12%) were called active. Inconclusive means that the source gave no clear call. Such entries were picked first, then a sample of the others. Calls come from the whole dose curve; as a rule, active = well fitted cell-killing curve with a large enough effect; inconclusive = small, poorly fitted or top-dose-only effect, or effect the other way; inactive = flat fitted curve, though single readings scatter. A potency beside an inconclusive call is a rough fit, not a confirmed value.

Assay: GF-AFC viability counterscreen for inhibitors of alpha-synuclein gene (SNCA) expression; note: nearly all actives have a fitted effect of over 30% in size;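 for activity change, negative = cytotoxicity: 0% = DMSO-treated cells and -100% = medium-only wells without cells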
Conditions: HEK-293-SNCA-luc viability, GF-AFC fluorescence, 24 h; activity change, negative = cytotoxicity: at 57.1 µM (top of the series) unless noted
Procedure, shortened: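 HEK-293-SNCA-luc cells (1500/well) plated 24 h, then exposed 24 h to a dilution series; GF-AFC added 30 min at 37C, fluorescence 405/540 nm; normalised to medium-only and DMSO wells, Hill fit.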
Potency is the fitted concentration of half-maximal effect; tags give direction and shape of the fitted curve.

Row | SMILES | Potency | activity change, negative = cytotoxicity
1 | COc1cc(-c2nc3cnccn3c2Nc2ccc(C(C)C)cc2)ccc1O | inconclusive: 39.8 µM [cytotoxic, single point] | –
2 | COc1cc(Cl)c(NC(=O)CN(C)S(=O)(=O)c2ccc3[nH]c4c(c3c2)CCCC4)c(OC)c1 | inconclusive: 28.2 µM [cytotoxic, partial curve, poor fit] | –
3 | Cc1cccc(C(=O)Nc2sc3c(c2C(=O)O)CCCC3)c1 | inconclusive: 1.78 µM [cytotoxic, full curve, poor fit] | –
4 | CCCOC1CCCN(C(=O)c2ccc3nc(-c4ccc(F)cc4)cn3c2)C1 (configuration not stated) | – | inactive: 5.02%
5 | O=C(NCCc1ccccc1)c1nc2sccn2c1-c1cccc(C(F)(F)F)c1 | – | inactive: 2.35%
6 | CC(C)Cn1c(=O)c(C(=O)N2CCN(C(=O)c3ccc(Cl)nc3)CC2)nc2cccnc21 | – | inactive: 0.057%
7 | COc1cccc(CN2CCCC(N3CCN(c4cccc(C(F)(F)F)c4)CC3)C2)c1O (configuration not stated) | inconclusive: 35.5 µM [cytotoxic, single point] | –
8 | CCN1C(=O)CCN(Cc2ccc(C#N)cc2)CC12CCOCC2 | inconclusive: 8.91 µM [cytotoxic, single point] | –
9 | O=C(c1ccccc1)N1CCCn2cc(-c3ccc4c(c3)OCO4)nc21 | inconclusive: 11.2 µM [cytotoxic, partial curve, poor fit] | –
10 | COc1ccc(CNC(=O)C[C@@H]2CCNC[C@@H]2Cc2cc(CN(C)Cc3ccccc3)on2)cc1 | – | inactive: -13.1%
11 | Cc1ccc(-c2c(C(=O)CCl)n(CCCO)c3ncnc(N)c23)cc1 | active: 23.8 µM | –
12 | O=C(NCC1CN(Cc2cccc(O)c2)CC12CN(c1ccccc1)C2)c1ccccc1 (configuration not stated) | inconclusive: 31.6 µM [cytotoxic, partial curve, poor fit] | –
13 | OCC1CN(c2ncccn2)CC12CCN(Cc1c[nH]c3ccccc13)CC2 (configuration not stated) | – | inactive: 1.66%
14 | Cc1ccc(-c2ncn(-c3ccc(Nc4nccc(-c5cccc(N6CCOCC6)c5)n4)cc3)n2)cn1 | inconclusive: 9.61 µM [cytotoxic, full curve] | –
15 | CC1=C[C@@H](CNS(=O)(=O)c2cccc(C#N)c2)[C@H](C(C)C)C[C@H]1CC(=O)N(C)Cc1cccnc1 | inconclusive: 28.2 µM [cytotoxic, partial curve, poor fit] | –
16 | c1cnc2nc(-c3ccsc3)[nH]c2c1 | inactive | –
17 | O=C(NCc1ccccc1Cl)c1ccc2oc(-c3ccccn3)nc2c1 | – | inactive: 13%
18 | CNCc1ccc(-c2[nH]c3cc(F)cc4c3c2CCNC4=O)cc1 | inconclusive: 16.8 µM [rising, partial curve, poor fit] | –
19 | COc1ccccc1-c1ccc(C(=O)N2CCC(NC(=O)Cc3ccc(F)cc3)CC2)cc1 | – | inactive: -7.61% [at 12.5 µM] and inactive: -7.49% [at 12.5 µM]
20 | COc1cccc(C(=O)N2CCC3(CCCCO3)CC2)c1 | inconclusive: 39.8 µM [cytotoxic, single point] | –
21 | O=C(c1ccccc1Cl)N1CCC2(C1)C(=O)N(CCc1ccccc1)c1ccccc12 (configuration not stated) | inactive and inconclusive: 39.8 µM [cytotoxic, single point] | –

Row | SMILES | Potency | activity change, negative = cytotoxicity
22 | O=C(c1nc(-c2ccc(Cl)cc2)c2cnccn12)N1CCOCC1 | – | inactive: 5.6% [at 87.6 µM]
23 | CCCn1c(=O)c2sccc2n2c(CCCC(=O)Nc3ccccc3F)nnc12 | inconclusive: 25.1 µM [cytotoxic, partial curve, poor fit] | –
24 | CCN1CCN(CCCNC(=O)c2ccc3c(c2)sc2nc(-c4ccc(C)cc4)cn23)CC1 | inconclusive: 28.2 µM [cytotoxic, partial curve, poor fit] | –
25 | COc1ccc(-c2nnc(SCC(=O)NCc3ccccc3)nc2-c2ccc(OC)c(OC)c2)cc1OC | inconclusive: 28.2 µM [cytotoxic, partial curve, poor fit] | –
26 | O=C1Nc2ccc(-c3ccccc3)cc2C(=O)N2CCN(C(=O)NC3CCCCC3)C[C@H]12 | – | inactive: 0.74% [at 87.6 µM]
27 | Cc1ccc(C2Cn3nnc(C(=O)N4CCN(C(=O)c5cc(Cl)ccc5F)CC4)c3CO2)cc1 (configuration not stated) | – | inactive: -1.47%
28 | COc1ccc(C(=O)N2CCCC(c3nc(-c4ccccc4)no3)CCNC(=O)CC2)c(OC)n1 (configuration not stated) | – | inactive: 5.78%
29 | Cc1ccccc1S(=O)(=O)N1C[C@@H](Oc2cccnc2)C[C@H]1C(N)=O | inconclusive: 39.8 µM [cytotoxic, single point] | –
30 | CCc1c(C)cc(C(=O)N[C@H]2CCOC[C@H]2C2CCOCC2)c(=O)n1C | – | inactive: 2.28%
31 | O=C(CCC[C@@H]1[C@H]2CCCN3CCC[C@@H](CN1C(=O)c1cccnc1)[C@@H]23)NC1CCCCC1 | inconclusive: 39.8 µM [cytotoxic, single point] | –
32 | Cc1ccncc1C(=O)N1CCC(N2C(=O)C(OCC3CC3)C23CCOCC3)CC1 (configuration not stated) | inconclusive: 5.62 µM [cytotoxic, single point] | –
33 | COc1cc(/C=C(\C#N)c2nc3ccc(C)cc3[nH]2)ccc1OC(C)C | inconclusive: 11.2 µM [rising, partial curve] | –
34 | CC(C)(C)c1ccc(C(=O)NCC(c2cccs2)S(=O)(=O)c2ccc(F)cc2)cc1 (configuration not stated) | – | inactive: 0.446%
35 | CCSc1oc(-c2ccc(F)cc2)nc1S(=O)(=O)c1ccc(C)cc1 | inconclusive: 25.1 µM [cytotoxic, partial curve, poor fit] | –
36 | O=C(NC1CCCN(c2cc(-c3ccc(F)cc3)[nH]n2)C1)c1cc2ccccc2[nH]1 (configuration not stated) | inconclusive: 28.2 µM [cytotoxic, single point] | –
37 | COc1ccc(C(=O)N2CCC3(CC2)OCC(C(=O)NC(C)C)N3C(=O)c2ccc(OC)cc2)cc1 (configuration not stated) | inconclusive: 3.16 µM [cytotoxic, single point] | –
38 | Cc1ccc(CN2CCC(CNC(=O)c3cc4ccc5cccnc5c4[nH]3)CC2)cc1 | inconclusive: 22.4 µM [cytotoxic, single point] | –
39 | COCCNC(=O)c1nc2cccnc2n(Cc2ccccc2)c1=O | – | inactive: 1.45%
40 | O=C(NCc1ccccc1F)c1ccc2c(c1)CN(Cc1ccc(O)c(F)c1)CCO2 | inconclusive: 28.2 µM [rising, single point] | –
41 | CC1(C)CC=C(c2cnc3ccccc3c2)c2cc(C(=O)Nc3ccc(C(=O)O)cc3)ccc21 | inconclusive: 1.68 µM [cytotoxic, partial curve, poor fit] | –
42 | CCn1cc(CN2C[C@@H](CO)[C@H](NC(=O)COC)C2)cn1 | inconclusive: 35.5 µM [cytotoxic, single point] | –

Row | SMILES | Potency | activity change, negative = cytotoxicity
43 | Cc1ccccc1NC(=O)CCNc1c(-c2ccc(F)cc2)nc2cnccn12 | – | inactive: -0.236%
44 | CCn1c(=N)c(C(=O)NC2CCCCC2)cc2c(=O)n3cccc(C)c3nc21 | inconclusive: 3.55 µM [rising, partial curve, poor fit] | –
45 | O=c1cc2nc(-c3cccs3)nc(SCCOc3ccc(Cl)cc3)n2[nH]1 | inconclusive: 22.4 µM [cytotoxic, single point] | –
46 | CCOC(=O)CCC(=O)O[C@H]1[C@H](O[C@@H]2[C@@H](C)[C@H](O[C@H]3C[C@@](C)(OC)[C@@H](O)[C@H](C)O3)[C@@H](C)C(=O)O[C@H](CC)[C@@](C)(O)[C@H](O)[C@@H](C)C(=O)[C@H](C)CC2(C)O)O[C@H](C)C[C@@H]1N(C)C (some centres not stated) | inconclusive: 26.7 µM [cytotoxic, single point] | –
47 | CC(Oc1cc(-n2cnc3ccc(CN4CCN(C)CC4)cc32)sc1C(N)=O)c1ccccc1C(F)(F)F (configuration not stated) | – | inactive: -51.9%
48 | Cc1ccccc1-c1nc(C(N)=O)c2c(n1)n(-c1ccc3c(c1)OCO3)c(=O)n2C | inconclusive: 15.8 µM [cytotoxic, partial curve, poor fit] | –
49 | CC(C)Oc1cccc2c1c(NC(=O)C1CCCO1)nn2Cc1ccccc1 (configuration not stated) | – | inactive: -3.93%
50 | CCOC(=O)c1ccc(NC(=O)C2CCN(C(=O)N3CC(C)Oc4ccc(C)cc43)CC2)cc1 (configuration not stated) | inconclusive: 20 µM [cytotoxic, partial curve, poor fit] | –
51 | CC(=O)N1CCN(C(=O)c2ccc3nnc(-c4ccoc4)n3c2)CC1 | – | inactive: 5.88%
52 | COc1ccccc1N1CCN(C(=O)c2cnn(-c3ccc(C)c(C)c3)c2C2CCN(C(=O)OC(C)(C)C)CC2)CC1 | inconclusive: 0.398 µM [cytotoxic, single point] | –
53 | CN1CCC(N[C@H]2C[C@@H](Cc3cc(C(C)(C)C)on3)C2(C)C)CC1 | – | inactive: -13.8% [at 87.6 µM]
54 | CCN(CC)CCNC(=O)c1ccc2nc(-c3ccccc3)c(-c3ccc(CN4CCC(n5c(=O)[nH]c6ccccc65)CC4)cc3)nc2c1 | inconclusive: 8.57 µM [cytotoxic, full curve] and active: 15 µM | –
55 | CCCCNC(=O)CCCN1C(=O)COc2ccc(C(C)(C)CC)cc21 | inconclusive: 39.8 µM [cytotoxic, single point] | –
56 | COc1ccc(Cl)cc1NC(=O)c1cc(-c2ccc[nH]2)n[nH]1 | inconclusive: 20 µM [cytotoxic, partial curve] | –
57 | CC1(COc2ccccc2)COc2ccc(C(=O)NCc3ccccc3)cc2N1 (configuration not stated) | inconclusive: 28.2 µM [cytotoxic, partial curve, poor fit] | –
58 | Cn1ccnc1CN1CCCC(NC(=O)c2ccc3c(c2)CCCO3)CC1 (configuration not stated) | – | inactive: -22.2%
59 | O=C(Nc1ccccc1)c1cnc2c(c1)N([S+](=O)([O-])c1cccnc1)CCC2 | – | inactive: -0.717% [at 87.6 µM]
60 | COc1cccc(-n2cc(C(=O)NCCc3cccc(C)c3)c3ccccc3c2=O)c1 | inconclusive: 20 µM [cytotoxic, single point] | –
61 | Cn1c(=O)c(-c2cccs2)nc2cncnc21 | inconclusive: 25.1 µM [rising, partial curve, poor fit] | –
62 | Cc1cccc(-n2c(SCC(=O)Nc3ccccc3Cl)nc3n[nH]c(C)c3c2=N)c1 | inconclusive: 17.8 µM [cytotoxic, partial curve, poor fit] | –
